The supplement of paper PMC8728848
Some of the results follow.

Experiments:
Assay in all cases: glycan array binding signal (z-score within array); higher = stronger binding
Conditions in all cases: glycan notation: IUPAC condensed, linker removed
[1] = biological target: Neu5Ac(a2-3)Gal(b1-3)[Neu5Ac(a2-6)]GlcNAc(b1-3)[Fuc(a1-3)[Gal(b1-4)]GlcNAc(b1-6)]Gal(b1-4)Glc
How it was run: (§1)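 Arrays were curated from the Consortium for Functional Glycomics database, 3228 in total, and kept only where the protein sequence was available. Binding is expressed as a within-array Z-score. This score was averaged across arrays of the same protein sequence at different concentrations or buffers and across linkers, and negative values can be read as non-binding.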

Neu5Ac(a2-3)Gal(b1-4)Glc = biological target: Neu5Ac(a2-3)Gal(b1-4)Glc
How it was run: as §1

[2] = biological target: Neu5Ac(a2-3)Gal(b1-4)GlcNAc
How it was run: as §1

[3] = biological target: Neu5Ac(a2-3)Gal(b1-4)GlcNAc(b1-2)Man
How it was run: as §1

[4] = biological target: Neu5Ac(a2-3)Gal(b1-4)GlcNAc(b1-2)Man(a1-3)[GlcNAc(b1-2)Man(b1-4)GlcNAc(b1-2)Man(a1-6)]Man(b1-4)GlcNAc(b1-4)GlcNAc
How it was run: as §1

[5] = biological target: Neu5Ac(a2-3)Gal(b1-4)GlcNAc(b1-2)Man(a1-3)[Neu5Ac(a2-3)Gal(b1-4)GlcNAc(b1-2)Man(a1-6)]Man(b1-4)GlcNAc(b1-4)[Fuc(a1-6)]GlcNAc
How it was run: as §1

[6] = biological target: Neu5Ac(a2-3)Gal(b1-4)GlcNAc(b1-2)Man(a1-3)[Neu5Ac(a2-6)Gal(b1-4)GlcNAc(b1-2)Man(a1-6)]Man(b1-4)GlcNAc(b1-4)GlcNAc
How it was run: as §1

[7] = biological target: Neu5Ac(a2-3)Gal(b1-4)GlcNAc(b1-2)[Neu5Ac(a2-3)Gal(b1-4)GlcNAc(b1-6)]Man(a1-6)[Neu5Ac(a2-3)Gal(b1-4)GlcNAc(b1-2)Man(a1-3)]Man(b1-4)GlcNAc(b1-4)GlcNAc
How it was run: as §1

[8] = biological target: Neu5Ac(a2-3)Gal(b1-4)GlcNAc(b1-3)Gal
How it was run: as §1

[9] = biological target: Neu5Ac(a2-3)Gal(b1-4)GlcNAc(b1-3)Gal(b1-3)GlcNAc
How it was run: as §1

[10] = biological target: Neu5Ac(a2-3)Gal(b1-4)GlcNAc(b1-3)Gal(b1-4)GlcNAc
How it was run: as §1

[11] = biological target: Neu5Ac(a2-3)Gal(b1-4)GlcNAc(b1-3)Gal(b1-4)GlcNAc(b1-3)Gal(b1-4)GlcNAc
How it was run: as §1

[12] = biological target: Neu5Ac(a2-3)Gal(b1-4)GlcNAc(b1-3)Gal(b1-4)[Fuc(a1-3)]GlcNAc
How it was run: as §1

[13] = biological target: Neu5Ac(a2-3)Gal(b1-4)GlcNAc(b1-3)GalNAc
How it was run: as §1

[14] = biological target: Neu5Ac(a2-3)Gal(b1-4)GlcNAc(b1-3)[Neu5Ac(a2-3)Gal(b1-4)GlcNAc(b1-6)]GalNAc
How it was run: as §1

[15] = biological target: Neu5Ac(a2-3)Gal(b1-4)GlcNAc(b1-6)GalNAc
How it was run: as §1

[16] = biological target: Neu5Ac(a2-3)Gal(b1-4)GlcNAc(b1-6)[Gal(b1-3)]GalNAc
How it was run: as §1

[17] = biological target: Neu5Ac(a2-3)Gal(b1-4)GlcNAc(b1-6)[Neu5Ac(a2-3)Gal(b1-3)]GalNAc
How it was run: as §1

[18] = biological target: Neu5Ac(a2-3)Gal(b1-4)GlcNAc6S
How it was run: as §1

[19] = biological target: Neu5Ac(a2-3)Gal(b1-4)[Fuc(a1-3)]GlcNAc
How it was run: as §1

[20] = biological target: Neu5Ac(a2-3)Gal(b1-4)[Fuc(a1-3)]GlcNAc(b1-3)Gal
How it was run: as §1

[21] = biological target: Neu5Ac(a2-3)Gal(b1-4)[Fuc(a1-3)]GlcNAc(b1-3)Gal(b1-4)GlcNAc
How it was run: as §1

[22] = biological target: Neu5Ac(a2-3)Gal(b1-4)[Fuc(a1-3)]GlcNAc(b1-3)Gal(b1-4)[Fuc(a1-3)]GlcNAc(b1-3)Gal(b1-4)[Fuc(a1-3)]GlcNAc
How it was run: as §1

[23] = biological target: Neu5Ac(a2-3)Gal(b1-4)[Fuc(a1-3)]GlcNAc(b1-3)GalNAc
How it was run: as §1

[24] = biological target: Neu5Ac(a2-3)Gal(b1-4)[Fuc(a1-3)]GlcNAc(b1-6)[Gal(b1-3)]GalNAc
How it was run: as §1

[25] = biological target: Neu5Ac(a2-3)Gal(b1-4)[Fuc(a1-3)]GlcNAc6S
How it was run: as §1

[26] = biological target: Neu5Ac(a2-3)Gal6S(b1-4)GlcNAc
How it was run: as §1

[27] = biological target: Neu5Ac(a2-3)Gal6S(b1-4)[Fuc(a1-3)]GlcNAc
How it was run: as §1

Neu5Ac(a2-3)GalNAc = biological target: Neu5Ac(a2-3)GalNAc
How it was run: as §1

[28] = biological target: Neu5Ac(a2-3)GalNAc(b1-4)GlcNAc
How it was run: as §1

[29] = biological target: Neu5Ac(a2-3)[GalNAc(b1-4)]Gal(b1-4)Glc
How it was run: as §1

[30] = biological target: Neu5Ac(a2-3)[GalNAc(b1-4)]Gal(b1-4)GlcNAc
How it was run: as §1

[31] = biological target: Neu5Ac(a2-3)[GalNAc(b1-4)]Gal(b1-4)GlcNAc(b1-3)GalNAc
How it was run: as §1

[32] = biological target: Neu5Ac(a2-3)[Neu5Ac(a2-6)]GalNAc
How it was run: as §1

Neu5Ac(a2-6)Gal = biological target: Neu5Ac(a2-6)Gal
How it was run: as §1

[33] = biological target: Neu5Ac(a2-6)Gal(b1-3)GlcNAc(b1-3)[Gal(b1-4)GlcNAc(b1-6)]Gal(b1-4)Glc
How it was run: as §1

Neu5Ac(a2-6)Gal(b1-4)Glc = biological target: Neu5Ac(a2-6)Gal(b1-4)Glc
How it was run: as §1

[34] = biological target: Neu5Ac(a2-6)Gal(b1-4)GlcNAc
How it was run: as §1

[35] = biological target: Neu5Ac(a2-6)Gal(b1-4)GlcNAc(b1-2)Man(a1-3)Man(b1-4)GlcNAc(b1-4)GlcNAc
How it was run: as §1

[36] = biological target: Neu5Ac(a2-6)Gal(b1-4)GlcNAc(b1-2)Man(a1-3)[Gal(b1-4)GlcNAc(b1-2)Man(a1-6)]Man(b1-4)GlcNAc(b1-4)GlcNAc
How it was run: as §1

[37] = biological target: Neu5Ac(a2-6)Gal(b1-4)GlcNAc(b1-2)Man(a1-3)[GlcNAc(b1-2)Man(a1-6)]Man(b1-4)GlcNAc(b1-4)GlcNAc
How it was run: as §1

[38] = biological target: Neu5Ac(a2-6)Gal(b1-4)GlcNAc(b1-2)Man(a1-3)[GlcNAc(b1-2)Man(b1-4)GlcNAc(b1-2)Man(a1-6)]Man(b1-4)GlcNAc(b1-4)GlcNAc
How it was run: as §1

B1: ArathEULS3 (Arabidopsis thaliana), Q945P1 (protein)
chain: MEHHHQHHRHHQRDDGEDDRQSFGVPPPHVDAPPQPHGLYQSQPHFDPYAPTPQAPAPYRSETQFEPHAPPPYRSEPYFETPAPPPSFGHVSHVGHQSPNESYPPEHHRYGGYQQPSNSLLESHGDHSGVTHVAHHSSNQPQSSSGVYHKPDENRLPDNLAGLAGRATVKVYSKAEPNYNLTIRDGKVILAPADPSDEAQHWYKDEKYSTKVKDADGHPCFALVNKATGEAMKHSVGATHPVHLIRYVPDKLDESVLWTESKDFGDGYRTIRMVNNTRLNVDAYHGDSKSGGVRDGTTIVLWDWNKGDNQLWKIFPFILEQKLISEEDLNSAVDHHHHHH
glycan array binding signal (z-score) [1]: -0.217 | glycan array binding signal (z-score) (Neu5Ac(a2-3)Gal(b1-4)Glc): 0.049 | glycan array binding signal (z-score) [2]: -0.106 | glycan array binding signal (z-score) [3]: -0.101 | glycan array binding signal (z-score) [4]: -0.094 | glycan array binding signal (z-score) [5]: 0.073 | glycan array binding signal (z-score) [6]: -0.138 | glycan array binding signal (z-score) [7]: 1.98 | glycan array binding signal (z-score) [8]: -0.383 | glycan array binding signal (z-score) [9]: 0.228 | glycan array binding signal (z-score) [10]: -0.347 | glycan array binding signal (z-score) [11]: 1.44 | glycan array binding signal (z-score) [12]: -0.229 | glycan array binding signal (z-score) [13]: -0.326 | glycan array binding signal (z-score) [14]: -0.314 | glycan array binding signal (z-score) [15]: -0.302 | glycan array binding signal (z-score) [16]: -0.185 | glycan array binding signal (z-score) [17]: -0.292 | glycan array binding signal (z-score) [18]: -0.173 | glycan array binding signal (z-score) [19]: 1.79 | glycan array binding signal (z-score) [20]: -0.374 | glycan array binding signal (z-score) [21]: 0.376 | glycan array binding signal (z-score) [22]: -0.25 | glycan array binding signal (z-score) [23]: 2 | glycan array binding signal (z-score) [24]: 0.404 | glycan array binding signal (z-score) [25]: -0.191 | glycan array binding signal (z-score) [26]: -0.285 | glycan array binding signal (z-score) [27]: -0.271 | glycan array binding signal (z-score) (Neu5Ac(a2-3)GalNAc): -0.337 | glycan array binding signal (z-score) [28]: -0.246 | glycan array binding signal (z-score) [29]: -0.328 | glycan array binding signal (z-score) [30]: -0.114 | glycan array binding signal (z-score) [31]: 0.825 | glycan array binding signal (z-score) [32]: 0.039 | glycan array binding signal (z-score) (Neu5Ac(a2-6)Gal): 0.091 | glycan array binding signal (z-score) [33]: -0.294 | glycan array binding signal (z-score) (Neu5Ac(a2-6)Gal(b1-4)Glc): 0.145 | glycan array binding signal (z-score) [34]: 0.011 | glycan array binding signal (z-score) [35]: -0.085 | glycan array binding signal (z-score) [36]: -0.154 | glycan array binding signal (z-score) [37]: -0.23 | glycan array binding signal (z-score) [38]: -0.223
